# Measured values taken from the supplement of paper PMC8674133.
# Numbering of substitutions follows the chain as printed. Recombinant human monoclonal antibodies (heavy:light variable regions). ELISA EC50 on the named antigen, from 10 µg/ml down; IC50 / IC90 against spike pseudovirus on 293T-ACE2 cells, 48 h; lower = stronger. Calls: IC50 above 1,000 ng/ml = non-neutralizing; EC50 above 2,000 ng/ml = non-binder. The source prints 1000 for neutralization that was not reached; it is given as >1000 ng/ml. A few antibodies were first reported in earlier work of the same group.
# B1: C1373 (protein)
# chain 1: QVQLQQWGAALLRPSETLSRTCAVYGGSFSGYYWSWIRQPPGKGLEWIGEINHSGSTNYNPSLKSRVTISVDTSKNQFSLVLSSVTAADTAVYYCARGRVFCTSTSCSFDYWGRGTLVTVSS
# chain 2: DIVMTQSPDSLAVSLGERATINCKSSQSLLYSSNNKNFLAWYQQKPGQPPKLLIYWASTRESGVPDRFSGSGSGTDFTLTISSLQAEDVAVYYCQQYYSSPYTFGQGTKLEIK
# B2: C1379 (protein)
# chain 1: VQLVESGGGVVQPGRSLRLSCAASGFTFSSYGMHWVRQAPGKGLDWVAIISYDGSKKYYADSVKGRVTISRDNSKNTLYLQMNSLRTEDTAVYYCAKDAALYYDLWSGYNYFDYWGQGTLVTVSS
# chain 2: DIQMTQSPSSLSASVGDRVTITCRASQGISNSLAWYQQKPGKAPKVLLYAASRLESGVPSRFSGSGSGTDYTLTISSLQPEDFATYYCQQYYSTPRTFGQGTKVEIK
# B3: C1287 (protein)
# chain 1: EVQLVESGGGLVQPGGSLRLSCVASGITVSSNYMSWVRQAPGKGLEWVSVIYSGGSTFYADSVKGRFTISRDNSKNTLFLQMNSLTAEDTALYYCARDLHIYGLDCWGQGTLVTVSS
# chain 2: DIQLTQSPSFLSASVGDRVTITCRASQGISNYLAWYQQRPGKAPKLLIYAASTLQSGVPSRFSGSASGTEFTLTISSLQPEDFATYYCQHLNSYPPVTFGGGTKVEIK
# B4: C1292 (protein)
# chain 1: QVQLVQSGAEVKKPGASVKVSCKASENTFSNHYMHWVRQAPGQGLEWMGIINPSAGSTTYAQKFQGRVTMTGDTSTSTVYMELSSLRSEDTAVYYCARDVVFVPAASGMDVWGQGTTVTVSS
# chain 2: IQMTQSPSSLSASVGDRVTITCRASQGIRNDLGWYQQKPGKAPKLLIYAASSLQSGVPSRFSGSGSGTDFTLTISSLQPEDFATYYCLQDYNYPWTFGQGTKVEIK
# B5: C1293 (protein)
# chain 1: EVQLVESGGGLVQPGRSLRLSCAASGFTFEDYAMHWVRQAPGKGLEWVSGISWNSGTIDYADSVKGRFTISRDNAKNSLYLQMNSLRAEDTALYHCAKVHGSGTYLRGVFDVWGQGTMVTVSS
# chain 2: EIVMTQSPATLSVSPGERASLSCRASQSVSSNLAWFQQKPGQAPRLLIYGTSTRATGIPARFSGSGSGTVFTLTISSLQSEDFAVYFCQLYNYWPPALSFGGGTKVEIK
# B6: C1353 (protein)
# chain 1: QVQLVQSGAEVKKPGASVKVSCKASGYTFTGNYIHWVRQAPGQGLEWVGWINPNSGAANYAQKFQGRVTMTRDTSMSTAYMEVSRLRSDDTAMYYCARTYFYDRSGLPGDYWGQGTLVTVSS
# chain 2: QSALTQPASVSGSPGQSITISCTGTNSDVGTYNYVSWYQQHPGKAPKLIIYEVTNRPSGVSNRFSGSKSANTASLTISGLQAEDEADYYCSSYMSNTLYVFGTGTKVSVL
# B7: C2018 (protein)
# chain 1: QVQLVESGGGLVKPGGSLRLSCAASGFTFSDYYMTWIRQAPGKGLEWVSYISSSGSTIYYADSVKGRFTISRDNAKNSLYLQMNSLRAEDTAVYYCARDSAGNWFDSRHYGMDVWGQGTTVTVSS
# chain 2: DIQMTQSPSSLSASVGDRVTITCRASQGISNYLAWYQQKPGKVPKLLIYAASTLQSGVPSRFSGSGSGTDFTLTISSLQPEDVATYYCQKYNSARFTFGPGTKVDIK
# B8: C1355 (protein)
# chain 1: QLQLQESGPGLVKPSETLSLTCTVSGGSISSGSYYWGWIRQPPGKGLEWIGSIFYSGITYYNSSLKSRVTISVDTSKNQFSLKVTSVTAADTAVYYCARHVRVDYDWDYWGQGTLVTVSS
# chain 2: QSALTQPASVSGSPGQSITISCTGSSSDVGGYNLVSWYQQHPGKAPKLMIYEATKRPSGVSNRFSGSVSGNTASLTISGLRAEDEADYYCCSYAGIWLFGGGTKLTVL
# B9: C1357 (protein)
# chain 1: QVQLVQSGAEVKKPGASVKVSCKASGYTFTNHYMHWVRQAPGQGLEWMGIINPSGGSTSYAQKFQGRVTMTRDTSTNTVYMELSSLRSDDTAVYYCARDQGIIVVISGGLDYWGQGTLVTVSS
# chain 2: QSALTQPRSVSGSPGQSVTISCTGTSSDVGGYNYVSWYQEHPGKAPKLMIYDVNKRPSGVPDRFSGSKSGNTASLTISGLQAEDEADYYCCSYAGSYTVVVFGGGTKLSVL
# B10: C1380 (protein)
# chain 1: QLQLQESGPGLVKPSETLSLTCTVSGGSISSSTYYWGWIRQPPGKGLEWIGSIYYSGSTFYNPSLKSRVTISVDTSKNQFSLKLNSVTAADTAVYYCASQFVGYSGWYLGNNWFDSWGQGTLVTVSS
# chain 2: QSVLTQPPSVSGAPGQRVTISCTGSSSNIGAVYDVQWYQHLPGTAPKLLIYGNRYRPSGVPDRFSGSKSGTSASLAITGLQAEDEADYYCQSFDNSLSGSVFGGGTKLTVL
# B11: C1381 (protein)
# chain 1: EVQLVESGGGLVQPGGSLRLSCAASGFTFRSYDMHWVRQVIGKGLEWVSAIGTAGDTFYPDSVKGRFTISRENAKNSLYLQMNSLRAGDTAVYYCARGPRGYYDRTGHFYRNWYFELWGRGTLVTVSS
# chain 2: QSALTQPASVSGSPGQSITISCTGTSSDVGGYNYVSWYQHHPGKAPKLMIYEVSNRPSGVSNRFSGSKSGNTASLTISGLQAEDEADYFCSSYTTSITLVLFGGGTKLTVL
# B12: C1382 (protein)
# chain 1: QLQLQESGPGLLKPSETLFLTCTVSGASISSSTYYWGWIRQPPGKGLEWIGSIYYSGSTYYNPSLKSRVTISVDTSKNQFSLKLSSVPAADTAVYYCARLVRHFGSRGFGAFDYWGQGTLVTVSS
# chain 2: QSALTQPASVSGSPGQSITISCTGTSSDVGGYDYVSWYQQHPGKAPKLMIYEVSNRPSGVSNRFSGSKSGNTASLTISGLQAEDEADYYCSSYTTSVLFGGGTKLTVL
# B13: C1383 (protein)
# chain 1: QLQLQESGPGLVKPSETLSLTCTVSGGSISSSSYYWGWIRQPPGKGLEWIGSIYYSGSTYYNPSLKSRVTISVDTSKNQFSLKLSSVTAADTAVYYCARLVRVFGSGYSRTFDYWGQGTLVTVSS
# chain 2: QSALTQPRSVSGSPGQSVTISCTGTSSDVGGYNYVSWYQQHPGKAPKLMIYDVTKRPSGVPDRFSGSKSGNTASLTISGLQGEDEADYYCCSFAGTCLFGTGTKVTVL
# B14: C1384 (protein)
# chain 1: EVQLVESGGGLVQPGGSLRLSCTASGLTVSSNYMSWVRQAPGKGLEWVSVIYSGGSTFYADSVKGRFTISRDNSKNTLFLQMNSLRAEDTAVYYCARDVYEGAFDIWGQGTMVTVSS
# chain 2: DIQLTQSPSFLSASVGDRVTVTCRASQGISNYLAWYQQKPGKAPKLLIYAASTLQSGVPSRFSGSGSGTEFTLTISSLQPEDFATYYCQQLSTYPPRSSFGQGTKLEIK
# B15: C1385 (protein)
# chain 1: EVQLVESGGGLVQPGRSLRLSCAASGFTFEDYAMHWVRLAPGKGLEWVSGISWNSASMGYADSVKGRFTISRDNAKNSLYLQMSSLRTEDTALYYCTKARVTTAMVLTHFDYWGQGTLVTVSS
# chain 2: B5 chain 2 with S20T, F36Y, Q38H, T51A, V70E, F87Y, L90Q, Y93N, A97K, S99T
# B16: C1388 (protein)
# chain 1: QVQLQESGPGLVKPSETLSLTCTVSGGSISGYYWAWIRQPPGKGLEWVGDIYSSGSTNYSPSLKSRLSISVDTSKNIFSLRLSSVSVADTAIYYCARHTNRRLSFPYFDYWGRGTLVTVSS
# chain 2: EIVLTQSPATLSLSPGERATLSCRASQSINSQLAWYQQKPGQAPRLLIYDASNRVTGIPARFSGSGSGTDFTLTISSLEPEDFADYYCQQRSKWPPGITFGQGTRLEIK
# Target: SARS-CoV-2 Wuhan-Hu-1 spike pseudovirus
# Assay: pseudovirus neutralization IC50; higher = weaker neutralization
# Description: (§1)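 Single-round luciferase reporter pseudovirus mixed with antibody dilutions and put on 293T-ACE2 cells for 48 h; signal relative to no-antibody wells, four-parameter fit.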
row,Binder,pseudovirus neutralization IC50
1,B1,> 1 µg/mL
2,B2,> 1 µg/mL
3,B3,0.00965 µg/mL
4,B4,> 1 µg/mL
5,B5,> 1 µg/mL
6,B6,> 1 µg/mL
7,B7,0.16 µg/mL
8,B8,> 1 µg/mL
9,B9,> 1 µg/mL
10,B10,0.00642 µg/mL
11,B11,0.108 µg/mL
12,B12,> 1 µg/mL
13,B13,> 1 µg/mL
14,B14,0.00625 µg/mL
15,B15,> 1 µg/mL
16,B16,> 1 µg/mL

# Target: SARS-CoV-2 Wuhan-Hu-1 spike pseudovirus
# Assay: pseudovirus neutralization IC90; higher = weaker neutralization
# Description: as §1
row,Binder,pseudovirus neutralization IC90
1,B1,> 1 µg/mL
2,B2,> 1 µg/mL
3,B3,0.0337 µg/mL
4,B4,> 1 µg/mL
5,B5,> 1 µg/mL
6,B6,> 1 µg/mL
7,B7,> 1 µg/mL
8,B8,> 1 µg/mL
9,B9,> 1 µg/mL
10,B10,0.0631 µg/mL
11,B11,> 1 µg/mL
12,B12,> 1 µg/mL
13,B13,> 1 µg/mL
14,B14,0.0964 µg/mL
15,B15,> 1 µg/mL
16,B16,> 1 µg/mL

# Target: SARS-CoV-2 Wuhan-Hu-1 spike receptor-binding domain
# Assay: ELISA binding EC50; higher = weaker binding; ELISA of recombinant human antibody on coated antigen, from 10 µg/ml in fourfold dilutions; four-parameter fit.
row,Binder,ELISA binding EC50
1,B1,0.00819 µg/mL
2,B2,0.00403 µg/mL
3,B3,0.00229 µg/mL
4,B4,0.00329 µg/mL
5,B5,0.00204 µg/mL
6,B6,> 10 µg/mL
7,B7,0.00265 µg/mL
8,B8,0.00262 µg/mL
9,B9,0.00611 µg/mL
10,B10,0.00202 µg/mL
11,B11,0.00207 µg/mL
12,B12,0.00179 µg/mL
13,B13,0.00264 µg/mL
14,B14,0.00109 µg/mL
15,B15,0.0039 µg/mL
16,B16,> 10 µg/mL
